# Assay results as given in the supplement of paper PMC8728848.
# This is one part of the list.
# B1: LTL (Lotus tetragonolobus), P19664 (protein)
# chain: VSFNYTEFKDDGSLILQGDAKIWTDGRLAMPTDPLVNNPKTTRSAGRALYATPVPIWDSATGNVASFVTSFNFLFVIRELKYTPTDGLVFFLAPVGTEIPSGSTGGFLGIFDGSNGFNQFVAVEFDSYHNIWDPKSLRSSHVGIDVNSIMSLKAVNWNRVSGSLEKATIIYDSQTNILSVVMTSQNGQITTIYGTIDLKTVLPEKVSVGFSATTGNPEREKHDIYSWSFTSTLKEPEEQA
# How the values were obtained:
# Test in all cases: glycan array binding signal (z-score within array); higher = stronger binding
# Details in all cases: glycan notation: IUPAC condensed, linker removed
# [1] = target: Fuc(a1-2)Gal(b1-4)GlcNAc(b1-3)Gal(b1-4)GlcNAc
# Procedure, shortened: (§1)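 Columns mapping to the same glycan were averaged after glycan names were converted to IUPAC-condensed notation. The data come from 3228 arrays in the Consortium for Functional Glycomics database, limited to those with an available protein sequence. Binding is reported as a within-array Z-score averaged across arrays of one protein sequence and across linkers.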
# [2] = target: Fuc(a1-2)Gal(b1-4)GlcNAc(b1-3)Gal(b1-4)GlcNAc(b1-2)Man(a1-3)[Fuc(a1-2)Gal(b1-4)GlcNAc(b1-3)Gal(b1-4)GlcNAc(b1-2)Man(a1-6)]Man(b1-4)GlcNAc(b1-4)GlcNAc
# Procedure, shortened: as §1
# [3] = target: Fuc(a1-2)Gal(b1-4)GlcNAc(b1-3)Gal(b1-4)GlcNAc(b1-3)Gal(b1-4)GlcNAc
# Procedure, shortened: as §1
# [4] = target: Fuc(a1-2)Gal(b1-4)GlcNAc(b1-3)GalNAc
# Procedure, shortened: as §1
# [5] = target: Fuc(a1-2)Gal(b1-4)GlcNAc(b1-3)[Fuc(a1-2)Gal(b1-4)GlcNAc(b1-6)]GalNAc
# Procedure, shortened: as §1
# [6] = target: Fuc(a1-2)Gal(b1-4)GlcNAc(b1-3)[Fuc(a1-3)[Gal(b1-4)]GlcNAc(b1-6)]Gal(b1-4)Glc
# Procedure, shortened: as §1
# [7] = target: Fuc(a1-2)Gal(b1-4)GlcNAc(b1-6)GalNAc
# Procedure, shortened: as §1
# [8] = target: Fuc(a1-2)Gal(b1-4)GlcNAc6S
# Procedure, shortened: as §1
# [9] = target: Fuc(a1-2)Gal(b1-4)[Fuc(a1-3)]GalNAc(b1-3)Gal(b1-4)[Fuc(a1-3)]GlcNAc
# Procedure, shortened: as §1
# [10] = target: Fuc(a1-2)Gal(b1-4)[Fuc(a1-3)]GalNAc(b1-3)Gal(b1-4)[Fuc(a1-3)]GlcNAc(b1-3)Gal(b1-4)[Fuc(a1-3)]GalNAc
# Procedure, shortened: as §1
# [11] = target: Fuc(a1-2)Gal(b1-4)[Fuc(a1-3)]GlcNAc
# Procedure, shortened: as §1
# [12] = target: Fuc(a1-2)Gal(b1-4)[Fuc(a1-3)]GlcNAc(b1-2)Man(a1-3)[Fuc(a1-2)Gal(b1-4)[Fuc(a1-3)]GlcNAc(b1-2)Man(a1-6)]Man(b1-4)GlcNAc(b1-4)[Fuc(a1-6)]GlcNAc
# Procedure, shortened: as §1
# [13] = target: Fuc(a1-2)Gal(b1-4)[Fuc(a1-3)]GlcNAc(b1-2)[Fuc(a1-2)Gal(b1-4)[Fuc(a1-3)]GlcNAc(b1-4)]Man(a1-3)[Fuc(a1-2)Gal(b1-4)[Fuc(a1-3)]GlcNAc(b1-2)Man(a1-6)]Man(b1-4)GlcNAc(b1-4)GlcNAc
# Procedure, shortened: as §1
# [14] = target: Fuc(a1-2)Gal(b1-4)[Fuc(a1-3)]GlcNAc(b1-3)Gal(b1-4)[Fuc(a1-3)]GlcNAc
# Procedure, shortened: as §1
# [15] = target: Fuc(a1-2)Gal(b1-4)[Fuc(a1-3)]GlcNAc(b1-3)Gal(b1-4)[Fuc(a1-3)]GlcNAc(b1-3)Gal(b1-4)[Fuc(a1-3)]GlcNAc
# Procedure, shortened: as §1
# [16] = target: Fuc(a1-2)Gal(b1-4)[Fuc(a1-3)]GlcNAc(b1-3)GalNAc
# Procedure, shortened: as §1
# [17] = target: Fuc(a1-2)Gal(b1-4)[Fuc(a1-3)]GlcNAc(b1-3)[Neu5Ac(a2-6)Gal(b1-4)GlcNAc(b1-6)]Gal(b1-4)Glc
# Procedure, shortened: as §1
# [18] = target: Fuc(a1-2)Gal3S(b1-4)GlcNAc
# Procedure, shortened: as §1
# [19] = target: Fuc(a1-2)Gal6S(b1-3)GlcNAc
# Procedure, shortened: as §1
# [20] = target: Fuc(a1-2)Gal6S(b1-3)GlcNAc6S
# Procedure, shortened: as §1
# Fuc(a1-2)Gal6S(b1-4)Glc = target: Fuc(a1-2)Gal6S(b1-4)Glc
# Procedure, shortened: as §1
# [21] = target: Fuc(a1-2)Gal6S(b1-4)Glc6S
# Procedure, shortened: as §1
# [22] = target: Fuc(a1-2)Gal6S(b1-4)GlcNAc
# Procedure, shortened: as §1
# Fuc(a1-2)GlcNAc = target: Fuc(a1-2)GlcNAc
# Procedure, shortened: as §1
# Fuc(a1-2)[Gal(a1-3)]Gal = target: Fuc(a1-2)[Gal(a1-3)]Gal
# Procedure, shortened: as §1
# [23] = target: Fuc(a1-2)[Gal(a1-3)]Gal(b1-3)GalNAc
# Procedure, shortened: as §1
# [24] = target: Fuc(a1-2)[Gal(a1-3)]Gal(b1-3)GalNAc(b1-3)Gal(a1-4)Gal(b1-4)Glc
# Procedure, shortened: as §1
# [25] = target: Fuc(a1-2)[Gal(a1-3)]Gal(b1-3)GlcNAc
# Procedure, shortened: as §1
# [26] = target: Fuc(a1-2)[Gal(a1-3)]Gal(b1-3)GlcNAc(b1-2)Man(a1-3)[Fuc(a1-2)[Gal(a1-3)]Gal(b1-3)GlcNAc(b1-2)Man(a1-6)]Man(b1-4)GlcNAc(b1-4)GlcNAc
# Procedure, shortened: as §1
# [27] = target: Fuc(a1-2)[Gal(a1-3)]Gal(b1-3)GlcNAc(b1-2)Man(a1-3)[Fuc(a1-2)[Gal(a1-3)]Gal(b1-3)GlcNAc(b1-2)Man(a1-6)]Man(b1-4)GlcNAc(b1-4)[Fuc(a1-6)]GlcNAc
# Procedure, shortened: as §1
# [28] = target: Fuc(a1-2)[Gal(a1-3)]Gal(b1-3)GlcNAc(b1-3)GalNAc
# Procedure, shortened: as §1
# [29] = target: Fuc(a1-2)[Gal(a1-3)]Gal(b1-3)GlcNAc(b1-6)GalNAc
# Procedure, shortened: as §1
# [30] = target: Fuc(a1-2)[Gal(a1-3)]Gal(b1-4)Glc
# Procedure, shortened: as §1
# [31] = target: Fuc(a1-2)[Gal(a1-3)]Gal(b1-4)GlcNAc
# Procedure, shortened: as §1
# [32] = target: Fuc(a1-2)[Gal(a1-3)]Gal(b1-4)GlcNAc(b1-2)Man
# Procedure, shortened: as §1
# [33] = target: Fuc(a1-2)[Gal(a1-3)]Gal(b1-4)GlcNAc(b1-2)Man(a1-3)[Fuc(a1-2)[Gal(a1-3)]Gal(b1-4)GlcNAc(b1-2)Man(a1-6)]Man(b1-4)GlcNAc(b1-4)GlcNAc
# Procedure, shortened: as §1
# [34] = target: Fuc(a1-2)[Gal(a1-3)]Gal(b1-4)GlcNAc(b1-2)Man(a1-3)[Fuc(a1-2)[Gal(a1-3)]Gal(b1-4)GlcNAc(b1-2)Man(a1-6)]Man(b1-4)GlcNAc(b1-4)[Fuc(a1-6)]GlcNAc
# Procedure, shortened: as §1
binder,measurement,setting,value
B1,glycan array binding signal (z-score),[1],-0.29
same,glycan array binding signal (z-score),[2],0.486
same,glycan array binding signal (z-score),[3],-0.156
same,glycan array binding signal (z-score),[4],-0.169
same,glycan array binding signal (z-score),[5],-0.109
same,glycan array binding signal (z-score),[6],0.046
same,glycan array binding signal (z-score),[7],0.22
same,glycan array binding signal (z-score),[8],-0.057
same,glycan array binding signal (z-score),[9],-0.279
same,glycan array binding signal (z-score),[10],-0.524
same,glycan array binding signal (z-score),[11],4.58
same,glycan array binding signal (z-score),[12],0.945
same,glycan array binding signal (z-score),[13],0.272
same,glycan array binding signal (z-score),[14],0.402
same,glycan array binding signal (z-score),[15],0.405
same,glycan array binding signal (z-score),[16],1.45
same,glycan array binding signal (z-score),[17],-0.181
same,glycan array binding signal (z-score),[18],-0.257
same,glycan array binding signal (z-score),[19],-0.38
same,glycan array binding signal (z-score),[20],0.098
same,glycan array binding signal (z-score),Fuc(a1-2)Gal6S(b1-4)Glc,0.096
same,glycan array binding signal (z-score),[21],-0.199
same,glycan array binding signal (z-score),[22],-0.004
same,glycan array binding signal (z-score),Fuc(a1-2)GlcNAc,2.03
same,glycan array binding signal (z-score),Fuc(a1-2)[Gal(a1-3)]Gal,-0.102
same,glycan array binding signal (z-score),[23],0.102
same,glycan array binding signal (z-score),[24],-0.059
same,glycan array binding signal (z-score),[25],-0.052
same,glycan array binding signal (z-score),[26],-0.093
same,glycan array binding signal (z-score),[27],-0.031
same,glycan array binding signal (z-score),[28],-0.25
same,glycan array binding signal (z-score),[29],0.017
same,glycan array binding signal (z-score),[30],-0.211
same,glycan array binding signal (z-score),[31],-0.206
same,glycan array binding signal (z-score),[32],-0.28
same,glycan array binding signal (z-score),[33],-0.154
same,glycan array binding signal (z-score),[34],-0.143
